This is one part of the list. Sequences were assembled here from the parent chain. Inactive controls read about 0.05.
B1: TEV protease; numbered along this chain (parent)
chain: MGESLFKGPRDYNPISSSICHLTNESDGHTTSLYGIGFGPFIITNKHLFRRNNGTLVVQSLHGVFKVKDTTTLQQHLVDGRDMIIIRMPKDFPPFPQKLKFREPQREERICLVTTNFQTKSMSSMVSDTSCTFPSGDGIFWKHWIQTKDGQCGSPLVSTRDGFIVGIHSASNFTNTNNYFTSVPKNFMELLTNQEAQQWVSGWRLNADSVLWGGHKVFMVKPEEPFQPVKEATQL

Variants of: B1
Test: raw area under fraction-flipped curve 0-4 h after induction (AUC4h, not background-subtracted), DNA-recorder readout of cleavage of the substrate (dimensionless); higher = more cleavage of the substrate by the protease variant
Conditions: temperature: 34 °C; time window: 0-4 h after rhamnose induction
Protocol: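 In vivo DNA recorder in E. coli TOP10(DE3) ΔrhaA at 34 °C. Each TEVp single-site mutant (parent TEVp 0) is paired with a single-site variant of the 7-mer TEVs (canonical ENLYFQ|S). The substrate sits between flexible linkers in a Bxb1-sfGFP-TEVs-SsrA fusion, so cleavage stabilises Bxb1 and speeds flipping of a recombination array, read by NGS. The value is the raw area under the fraction-flipped curve over 0-4 h after rhamnose induction (AUC4h), with ≥20 reads per time point. It is not background-subtracted; inactive controls average about 0.047.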
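Also: Bxb1 expression induced with 0.2% (w/v) L-rhamnose at OD600 near 0.5, cultures sampled hourly, flipped fraction per protease–substrate barcode pair counted by paired-end Illumina sequencing.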

Variant	area with substrate ENLYFCS	area with substrate ENLYFDS	area with substrate ENLYFES	area with substrate ENLYFFS	area with substrate ENLYFLS	area with substrate ENLYFNS	area with substrate ENLYFPS	area with substrate ENLYFSS	area with substrate ENLYFTS	area with substrate ENLYFVS	area with substrate ENLYFGS	area with substrate ENLYFHS	area with substrate ENLYFIS	area with substrate ENLYFKS	area with substrate ENLYFWS	area with substrate ENLYFAS	area with substrate ENLYFMS	area with substrate ENLYFRS	area with substrate ENLYFYS
V157Y	0.055	0.0526	0.0565	0.0579	0.0605	0.0644	0.0353	0.0635	0.0579	0.0589	–	–	–	–	–	–	–	–	–
H215M	0.0526	–	0.0917	0.0795	–	–	0.0584	–	–	–	0.0667	0.0573	0.0588	0.0688	0.0535	–	–	–	–
F49E	0.0645	0.0562	0.0547	0.0684	–	0.0552	0.0574	0.0586	0.051	0.0541	–	0.0414	0.0533	0.0546	0.0614	0.0514	0.0368	0.0626	0.0564
P134I	0.0479	0.0623	0.0539	–	0.0574	0.0614	0.0728	0.0504	0.0677	0.0483	–	0.0559	0.0766	–	0.0596	–	0.0662	0.0529	–
P134S	0.0579	–	–	0.0714	–	0.0665	0.0467	0.0544	–	–	–	0.0672	0.0563	–	–	–	0.0604	–	0.0607
M188D	0.0619	0.0742	0.0637	0.0624	–	0.062	0.0626	0.0507	0.0546	–	–	0.0611	0.0612	0.0578	–	–	–	0.0542	0.0625
K185Q	0.0599	–	0.0703	0.0659	0.0518	0.0568	0.0523	0.0631	0.0583	–	–	0.0521	0.0591	0.0653	–	–	0.0653	0.0539	0.0669
Y34N	0.0323	0.0695	0.0996	0.0652	–	–	0.0599	–	–	–	0.0444	–	0.0494	–	0.0492	–	0.064	–	–
G8E	–	–	–	0.0672	–	–	–	0.0713	–	–	–	–	–	–	–	0.0545	–	0.0516	–
H76P	0.0629	–	0.0501	0.0707	–	0.0565	0.0503	0.0511	0.05	–	–	0.044	0.0631	0.0617	0.051	–	0.037	–	–
D137E	0.0396	0.0626	0.0693	0.0649	0.0556	0.0501	0.039	–	0.0586	–	0.07	–	0.0614	0.0663	0.0504	–	0.0651	0.0387	–
P9H	0.0588	–	0.066	0.0589	–	0.0749	0.0662	–	–	–	–	0.0554	–	0.0505	–	–	0.0866	0.0647	0.0625
G39P	0.0342	0.0328	0.0354	0.0422	0.0477	0.0443	0.0385	0.015	0.0183	0.0467	–	0.0374	0.0339	–	0.0364	–	0.0405	–	–
N178W	0.0392	–	–	–	–	–	0.0717	–	–	0.0639	–	–	–	0.0591	–	–	–	–	–
M219P	0.0538	0.0591	0.055	0.0626	–	0.055	0.0547	0.0584	0.0592	0.0646	–	–	0.048	0.0602	–	–	0.0582	0.0645	0.0799
R109F	0.0317	–	–	–	–	–	0.0493	0.0648	–	0.0595	0.0471	–	0.049	0.0603	–	–	0.0555	–	–
L211F	0.0685	–	0.0818	0.0741	–	–	0.0654	–	0.0569	0.0249	–	–	0.0614	0.0634	0.0546	0.0529	0.0703	–	–

Variant	area with substrate ENLYFCS	area with substrate ENLYFDS	area with substrate ENLYFES	area with substrate ENLYFFS	area with substrate ENLYFLS	area with substrate ENLYFNS	area with substrate ENLYFPS	area with substrate ENLYFSS	area with substrate ENLYFTS	area with substrate ENLYFVS	area with substrate ENLYFGS	area with substrate ENLYFHS	area with substrate ENLYFIS	area with substrate ENLYFKS	area with substrate ENLYFWS	area with substrate ENLYFAS	area with substrate ENLYFMS	area with substrate ENLYFRS	area with substrate ENLYFYS
G153E	0.0651	0.0519	0.0409	–	–	0.0528	–	–	0.0683	–	–	–	0.0366	–	–	–	0.0559	–	–
M83Y	0.0674	–	0.0321	–	–	–	0.0674	0.0509	0.0505	–	0.0568	–	–	–	–	–	–	–	–
Q75H	–	0.0664	0.0662	0.0634	0.0674	0.0477	–	0.0484	0.0561	0.0571	–	–	0.0503	0.0578	0.0534	0.064	0.0608	0.0633	–
K142V	0.0765	–	0.0696	0.0502	0.0511	0.0596	0.0537	0.0619	0.0971	0.0651	–	–	0.0566	–	0.0558	0.0451	0.0533	0.0419	0.0498
E195V	–	–	–	–	–	0.0348	–	–	0.0614	–	–	–	0.0566	–	–	0.0496	0.0585	–	–
E231L	0.0555	0.051	–	0.0516	0.0485	–	–	–	–	–	–	–	0.0614	–	0.0611	–	0.0639	0.0547	–
F117D	0.0475	–	0.0682	0.037	0.0595	0.0592	–	–	–	0.0585	–	–	0.0611	–	0.0704	–	–	0.0672	0.0463
G213Q	0.0621	–	0.0632	–	0.0673	0.0657	–	–	0.0614	0.0657	–	–	–	–	–	–	–	–	–
T159R	0.0594	–	–	0.0737	–	–	0.0851	–	–	–	–	0.0573	–	–	–	–	0.0566	0.0646	0.0496
D128P	0.0566	–	0.0722	–	–	0.0482	0.0608	–	0.0671	0.0592	0.0484	–	0.0604	0.0833	0.063	–	0.0616	–	–
T132H	0.0406	–	0.0916	0.0695	0.0772	–	0.0714	–	–	–	0.0591	–	0.0533	0.0802	0.0614	–	0.0595	–	–
F180D	0.0598	–	–	–	–	0.051	0.0591	0.0444	–	–	0.0593	–	0.0552	0.061	–	0.0523	0.0406	–	0.0427
N172Y	0.0659	–	–	0.0886	–	0.0569	–	–	–	0.0651	–	–	0.0503	–	–	–	0.0552	–	–
A196T	0.0642	0.0633	0.0574	0.0663	0.0671	–	0.045	0.0634	0.0524	–	0.0597	0.0637	0.0443	0.0584	0.0665	–	0.0612	0.0534	–
T71M	0.047	0.0574	0.055	–	0.0523	–	0.0637	–	0.0758	–	–	–	0.0768	0.0192	0.0751	–	0.0768	–	–
T31H	0.0557	–	0.0798	0.0649	0.0585	0.0636	0.0586	–	0.0471	–	0.0794	–	0.0607	0.0506	0.0598	–	0.0685	–	0.0733

Reference: the supplement of paper PMC12217912
